{"source": "the supplement of paper PMC10369915", "binders": {"B1": {"name": "C1QBP_HUMAN_188 (peptide)", "chain": "ALVLDCHYPEDEVGQ"}, "B2": {"name": "BLVRA_HUMAN_198 (peptide)", "chain": "EERKEDQYMKMTVCL"}, "B3": {"name": "CAMP1_HUMAN_1537 (peptide)", "chain": "YPDTEEIYKLTGTGP"}, "B4": {"name": "BTK_HUMAN_344 (peptide)", "chain": "CSTPQSQYYLAEKHL"}, "B5": {"name": "ABL1_HUMAN_139 (peptide)", "chain": "VSRNAAEYLLSSGIN"}, "B6": {"name": "CATIN_HUMAN_559_YA (peptide)", "chain": "DDADAGRYSPRLLTA"}, "B7": {"name": "CALM_HUMAN_100 (peptide)", "chain": "FDKDGNGYISAAELR"}, "B8": {"name": "CALU_HUMAN_47 (peptide)", "chain": "NDAQSFDYDHDAFLG"}, "B9": {"name": "BECN1_HUMAN_233_YA (peptide)", "chain": "EAQAQREYSEFKRQQ"}, "B10": {"name": "CBPD_HUMAN_265 (peptide)", "chain": "GGSVVASYPFDDSPE"}, "B11": {"name": "C1QR1_HUMAN_644 (peptide)", "chain": "SRAMENQYSPTPGTD"}, "B12": {"name": "CASQ2_HUMAN_282 (peptide)", "chain": "EKSDPDGYEFLEILK"}, "B13": {"name": "ABL1_HUMAN_128 (peptide)", "chain": "SLEKHSWYHGPVSRN"}, "B14": {"name": "CADH1_HUMAN_754_YA (peptide)", "chain": "DTRDNVAYADEEGGG"}, "B15": {"name": "ABI1_HUMAN_455_YA (peptide)", "chain": "IEKVVAIYDATKDKD"}, "B16": {"name": "CBL_HUMAN_371 (peptide)", "chain": "TQEQYELYCEMGSTF"}, "B17": {"name": "CALB2_HUMAN_214_YA (peptide)", "chain": "ADKDRSGYIDEHELD"}, "B18": {"name": "BLVRA_HUMAN_83 (peptide)", "chain": "ESSSHEDYIRQFLNA"}}, "note": "This is one part of the list. Rule as the data show it: active = 3.2 or more and inactive = the rest. Only a few entries rise above the background.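 Also: displayed peptides selected on beads carrying the immobilized SH2 domain, with library peptides lacking any tyrosine serving as negative controls.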"}
{"target": "SHP2 C-SH2 domain E139D", "assay": "enrichment score (SH2-bound / input frequency) (ratio); higher = stronger binding; tyrosines were phosphorylated by kinases first", "settings": "peptide library: Human pTyr"}
{"binder": "B1", "enrichment score": "inactive: 1.24"}
{"binder": "B2", "enrichment score": "inactive: 1.75"}
{"binder": "B3", "enrichment score": "inactive: 0.867"}
{"binder": "B4", "enrichment score": "inactive: 1.13"}
{"binder": "B5", "enrichment score": "inactive: 0.552"}
{"binder": "B6", "enrichment score": "inactive: 0.626"}
{"binder": "B7", "enrichment score": "inactive: 0.793"}
{"binder": "B8", "enrichment score": "inactive: 0.673"}
{"binder": "B9", "enrichment score": "inactive: 0.752"}
{"binder": "B10", "enrichment score": "inactive: 0.611"}
{"binder": "B11", "enrichment score": "inactive: 0.676"}
{"binder": "B12", "enrichment score": "inactive: 1.12"}
{"binder": "B13", "enrichment score": "inactive: 0.911"}
{"binder": "B14", "enrichment score": "inactive: 1.15"}
{"binder": "B15", "enrichment score": "inactive: 0.871"}
{"binder": "B16", "enrichment score": "inactive: 1.75"}
{"binder": "B17", "enrichment score": "inactive: 0.944"}
{"binder": "B18", "enrichment score": "inactive: 0.559"}
{"target": "SHP2 C-SH2 domain wild-type", "assay": "enrichment score (SH2-bound / input frequency) (ratio); higher = stronger binding; tyrosines were phosphorylated by kinases first", "settings": "peptide library: Human pTyr"}
{"binder": "B1", "enrichment score": "inactive: 1.05"}
{"binder": "B2", "enrichment score": "inactive: 1.28"}
{"binder": "B3", "enrichment score": "inactive: 0.414"}
{"binder": "B4", "enrichment score": "inactive: 0.835"}
{"binder": "B5", "enrichment score": "inactive: 0.537"}
{"binder": "B6", "enrichment score": "inactive: 0.369"}
{"binder": "B7", "enrichment score": "inactive: 1.3"}
{"binder": "B8", "enrichment score": "inactive: 0.54"}
{"binder": "B9", "enrichment score": "inactive: 0.813"}
{"binder": "B10", "enrichment score": "inactive: 0.543"}
{"binder": "B11", "enrichment score": "inactive: 0.563"}
{"binder": "B12", "enrichment score": "inactive: 0.851"}
{"binder": "B13", "enrichment score": "inactive: 1.08"}
{"binder": "B14", "enrichment score": "inactive: 0.974"}
{"binder": "B15", "enrichment score": "inactive: 0.785"}
{"binder": "B16", "enrichment score": "inactive: 1.77"}
{"binder": "B17", "enrichment score": "inactive: 1.2"}
{"binder": "B18", "enrichment score": "inactive: 0.673"}
{"target": "SHP2 N-SH2 domain L43F", "assay": "enrichment score (SH2-bound / input frequency) (ratio); higher = stronger binding; tyrosines were phosphorylated by kinases first", "settings": "peptide library: Human pTyr"}
{"binder": "B1", "enrichment score": "inactive: 1.51"}
{"binder": "B2", "enrichment score": "inactive: 1.41"}
{"binder": "B3", "enrichment score": "inactive: 0.593"}
{"binder": "B4", "enrichment score": "inactive: 1.02"}
{"binder": "B5", "enrichment score": "inactive: 0.581"}
{"binder": "B6", "enrichment score": "inactive: 0.465"}
{"binder": "B7", "enrichment score": "inactive: 0.506"}
{"binder": "B8", "enrichment score": "inactive: 0.695"}
{"binder": "B9", "enrichment score": "inactive: 0.827"}
{"binder": "B10", "enrichment score": "inactive: 0.488"}
{"binder": "B11", "enrichment score": "inactive: 0.577"}
{"binder": "B12", "enrichment score": "inactive: 0.881"}
{"binder": "B13", "enrichment score": "inactive: 0.85"}
{"binder": "B14", "enrichment score": "inactive: 0.959"}
{"binder": "B15", "enrichment score": "inactive: 0.888"}
{"binder": "B16", "enrichment score": "inactive: 1.59"}
{"binder": "B17", "enrichment score": "inactive: 1.02"}
{"binder": "B18", "enrichment score": "inactive: 0.843"}
{"target": "SHP2 N-SH2 domain T42A", "assay": "enrichment score (SH2-bound / input frequency) (ratio); higher = stronger binding; tyrosines were phosphorylated by kinases first", "settings": "peptide library: Human pTyr"}
{"binder": "B1", "enrichment score": "inactive: 1.2"}
{"binder": "B2", "enrichment score": "active: 4.08"}
{"binder": "B3", "enrichment score": "inactive: 0.538"}
{"binder": "B4", "enrichment score": "inactive: 1.11"}
{"binder": "B5", "enrichment score": "inactive: 0.496"}
{"binder": "B6", "enrichment score": "inactive: 0.477"}
{"binder": "B7", "enrichment score": "inactive: 0.742"}
{"binder": "B8", "enrichment score": "inactive: 0.677"}
{"binder": "B9", "enrichment score": "inactive: 0.781"}
{"binder": "B10", "enrichment score": "inactive: 0.552"}
{"binder": "B11", "enrichment score": "inactive: 0.492"}
{"binder": "B12", "enrichment score": "inactive: 0.871"}
{"binder": "B13", "enrichment score": "inactive: 0.807"}
{"binder": "B14", "enrichment score": "inactive: 0.933"}
{"binder": "B15", "enrichment score": "inactive: 0.933"}
{"binder": "B16", "enrichment score": "inactive: 1.4"}
{"binder": "B17", "enrichment score": "inactive: 1.21"}
{"binder": "B18", "enrichment score": "inactive: 0.629"}
{"target": "SHP2 N-SH2 domain T52S", "assay": "enrichment score (SH2-bound / input frequency) (ratio); higher = stronger binding; tyrosines were phosphorylated by kinases first", "settings": "peptide library: Human pTyr"}
{"binder": "B1", "enrichment score": "inactive: 1.21"}
{"binder": "B2", "enrichment score": "inactive: 1.31"}
{"binder": "B3", "enrichment score": "inactive: 0.636"}
{"binder": "B4", "enrichment score": "inactive: 1.19"}
{"binder": "B5", "enrichment score": "inactive: 0.592"}
{"binder": "B6", "enrichment score": "inactive: 0.408"}
{"binder": "B7", "enrichment score": "inactive: 0.739"}
{"binder": "B8", "enrichment score": "inactive: 0.73"}
{"binder": "B9", "enrichment score": "inactive: 0.751"}
{"binder": "B10", "enrichment score": "inactive: 0.534"}
{"binder": "B11", "enrichment score": "inactive: 0.666"}
{"binder": "B12", "enrichment score": "inactive: 0.822"}
{"binder": "B13", "enrichment score": "inactive: 1.02"}
{"binder": "B14", "enrichment score": "inactive: 0.842"}
{"binder": "B15", "enrichment score": "inactive: 0.927"}
{"binder": "B16", "enrichment score": "inactive: 1.88"}
{"binder": "B17", "enrichment score": "inactive: 1.17"}
{"binder": "B18", "enrichment score": "inactive: 0.715"}
{"target": "SHP2 N-SH2 domain wild-type", "assay": "enrichment score (SH2-bound / input frequency) (ratio); bacterial display of known human phosphotyrosine sites (pTyr-Var adds point mutants) read by sequencing; higher = stronger binding; tyrosines were phosphorylated by kinases first", "settings": "peptide library: Human pTyr"}
{"binder": "B1", "enrichment score": "inactive: 1.26"}
{"binder": "B2", "enrichment score": "inactive: 1.84"}
{"binder": "B3", "enrichment score": "inactive: 0.787"}
{"binder": "B4", "enrichment score": "inactive: 1.45"}
{"binder": "B5", "enrichment score": "inactive: 0.682"}
{"binder": "B6", "enrichment score": "inactive: 0.518"}
{"binder": "B7", "enrichment score": "inactive: 0.746"}
{"binder": "B8", "enrichment score": "inactive: 0.701"}
{"binder": "B9", "enrichment score": "inactive: 0.919"}
{"binder": "B10", "enrichment score": "inactive: 0.548"}
{"binder": "B11", "enrichment score": "inactive: 0.633"}
{"binder": "B12", "enrichment score": "inactive: 0.912"}
{"binder": "B13", "enrichment score": "inactive: 1.07"}
{"binder": "B14", "enrichment score": "inactive: 1.06"}
{"binder": "B15", "enrichment score": "inactive: 0.995"}
{"binder": "B16", "enrichment score": "inactive: 1.77"}
{"binder": "B17", "enrichment score": "inactive: 1.14"}
{"binder": "B18", "enrichment score": "inactive: 0.683"}
